According to a collection of fitness landscapes (doi:10.1016/j.celrep.2020.107928):
The full ranking holds about 81,000 sequences; the median of “one-hybrid fitness for binding NBS DNA” is about -0.1, and the highest 2% start at about 0.36. This is one part of the list.

B1: Caulobacter ParB omega fusion; a variant is named by its letters at X, in order, B8GW30 (parent)
chain: MESVVVGEPGMSEGRRGLGRGLSALLGEVDAAPAQAPGEQLGGSREAPIEILQRNPDQPRRTFREEDLEDLSNSIREKGVLQPILVRPSPDTAGEYQIVAGERAWRAAQRAGLKTVPIMVRELDDLAVLEIGIIENVQRADLNVLEEALSYKVLMEKFERTQENIAQTIGKSXSHVANXMRLLXLPDEVQSYLVSGELTAXHARAIAAAADPVALAKQIIEGGLSVRETEALARKAPNLSAGKSKGGRPPRVKDTDTQALESDLSSVLGLDVSIDHRGSTGTLTITYATLEQLDDLCNRLTRGI

Variants of: B1
Assay: one-hybrid fitness for binding NBS DNA (the Noc-binding site; scaled: cognate 1, non-cognate 0); higher = stronger binding
Details: with NBS DNA site
Summary of the method: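 Values were rescaled so that cognate is 1 and non-cognate is 0. Each is a fitness, the log change in a variant's read ratio to wild type from Illumina reads of plasmids before and after selection, with three replicate libraries pooled and variants under 10 reads dropped. Selection of the Caulobacter ParB libraries, four specificity codons randomised, used E. coli USO with a HIS3 reporter, site 19 bp from the promoter, on M9-minus-histidine with 0.1 mM IPTG and 5 mM 3-AT for 48 hours at 37°C.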

Variant	one-hybrid fitness for binding NBS DNA
PIRD	≤ 0.2
EMIY	≤ 0.2
TLNL	≤ 0.2
HALI	≤ 0.2
LKKE	≤ 0.2
VTDV	≤ 0.2
PTRT	≤ 0.2
YPLW	≤ 0.2
SFWS	≤ 0.2
TPMG	≤ 0.2
SKLW	≤ 0.2
CAER	≤ 0.2
SQDG	≤ 0.2
QSMM	≤ 0.2
DYTG	≤ 0.2
KKNV	≤ 0.2
HIGS	≤ 0.2
PCQD	≤ 0.2
STSI	≤ 0.2
FRSH	≤ 0.2
IPED	≤ 0.2
KCIR	≤ 0.2
PVLL	≤ 0.2
SWSW	≤ 0.2
RVQQ	≤ 0.2

Variant	one-hybrid fitness for binding NBS DNA
KRIM	≤ 0.2
WFVR	≤ 0.2
YRTT	≤ 0.2
RHYV	≤ 0.2
TWKG	≤ 0.2
VIMR	≤ 0.2
SKQL	≤ 0.2
SSCA	≤ 0.2
NRGL	≤ 0.2
FHHG	≤ 0.2
IINM	≤ 0.2
LSLM	≤ 0.2
TLFG	≤ 0.2
NHLV	≤ 0.2
PFES	≤ 0.2
GVIG	≤ 0.2
RGSL	≤ 0.2
AMMS	≤ 0.2
CVGS	≤ 0.2
VQPA	≤ 0.2
YLFS	≤ 0.2
DLIL	≤ 0.2
YMAV	≤ 0.2
NCID	≤ 0.2
VFLD	≤ 0.2

Variant	one-hybrid fitness for binding NBS DNA
NSTM	≤ 0.2
PVQT	≤ 0.2
ENDC	≤ 0.2
HSPR	≤ 0.2
WPFI	≤ 0.2
NAIF	≤ 0.2
QPSH	≤ 0.2
WSRT	≤ 0.2
EGNG	≤ 0.2
SFPW	≤ 0.2
SENG	≤ 0.2
YIYS	≤ 0.2
AFVQ	≤ 0.2
CQKM	≤ 0.2
HDMV	≤ 0.2
CCSC	≤ 0.2
NSSI	≤ 0.2
QKAN	≤ 0.2
RTHG	≤ 0.2
QHLL	≤ 0.2
DTKS	≤ 0.2
AYMA	≤ 0.2
HIPH	≤ 0.2
DVMC	≤ 0.2
ALPN	≤ 0.2

Variant	one-hybrid fitness for binding NBS DNA
SRWI	≤ 0.2
WHCC	≤ 0.2
QIFK	≤ 0.2
DKVI	≤ 0.2
YDAG	≤ 0.2
VHDG	≤ 0.2
NLPI	≤ 0.2
NWTS	≤ 0.2
SPEF	≤ 0.2
WCKL	≤ 0.2
TFRG	≤ 0.2
SWRF	≤ 0.2
PHRM	≤ 0.2
QLRA	0.479
LDSC	≤ 0.2
HLCT	≤ 0.2
TQRW	≤ 0.2
PNPF	≤ 0.2
MGDT	≤ 0.2
FGKN	≤ 0.2
VSNF	≤ 0.2
WHKG	≤ 0.2
TCGC	≤ 0.2
NSNC	≤ 0.2
THMA	≤ 0.2

Variant	one-hybrid fitness for binding NBS DNA
TPLG	≤ 0.2
PIVL	≤ 0.2
WGST	≤ 0.2
VTTN	≤ 0.2
LSHV	≤ 0.2
YDGR	≤ 0.2
LPCE	≤ 0.2
QGET	≤ 0.2
ITKC	≤ 0.2
DVYR	≤ 0.2
RQYD	≤ 0.2
SHDS	≤ 0.2
RIRA	0.304
HDSK	≤ 0.2
ARTS	≤ 0.2
VERI	≤ 0.2
SSAD	≤ 0.2
VRAL	≤ 0.2
VVVR	≤ 0.2
MFCR	≤ 0.2
KRGA	0.227
AKNR	≤ 0.2
HADC	≤ 0.2
IIRT	≤ 0.2
WDCS	≤ 0.2

Variant	one-hybrid fitness for binding NBS DNA
TLHW	≤ 0.2
GYKK	≤ 0.2
IWSY	≤ 0.2
AVLV	≤ 0.2
QYCG	≤ 0.2
PYNR	≤ 0.2
EITS	≤ 0.2
DMST	≤ 0.2
AEWC	≤ 0.2
GWWR	≤ 0.2
QLHK	≤ 0.2
QKWM	≤ 0.2
QQMD	≤ 0.2
MKRS	≤ 0.2
SKAF	≤ 0.2
WGPQ	≤ 0.2
KVTS	≤ 0.2
MTNG	≤ 0.2
AMEG	≤ 0.2
KLCI	≤ 0.2
QYPL	≤ 0.2
HLIG	≤ 0.2
EYNC	≤ 0.2
RMHR	0.503
TIED	≤ 0.2

Variant	one-hybrid fitness for binding NBS DNA
EQFG	≤ 0.2
RCHK	≤ 0.2
RNCF	≤ 0.2
PVQM	≤ 0.2
YYLP	≤ 0.2
VGLT	≤ 0.2
VHLV	≤ 0.2
VNMR	≤ 0.2
PDAH	≤ 0.2
LTAS	≤ 0.2
RCQP	≤ 0.2
MADG	≤ 0.2
KLTT	≤ 0.2
RCMS	0.412
NIIR	≤ 0.2
VVNH	≤ 0.2
LGHR	≤ 0.2
TWMK	≤ 0.2
KLKH	≤ 0.2
PCLR	≤ 0.2
RLRQ	≤ 0.2
QNNT	0.201
NPHA	≤ 0.2
AHCR	≤ 0.2
RYCQ	≤ 0.2

Variant	one-hybrid fitness for binding NBS DNA
AARH	≤ 0.2
EDVW	≤ 0.2
NTHQ	≤ 0.2
RSEG	≤ 0.2
AMKF	≤ 0.2
AKNC	≤ 0.2
MHSR	≤ 0.2
AKED	≤ 0.2
IQSH	≤ 0.2
RWKH	≤ 0.2
IRKD	≤ 0.2
ASTP	≤ 0.2
PDNY	≤ 0.2
RHDF	≤ 0.2
DHSA	≤ 0.2
YDLF	≤ 0.2
IVRA	≤ 0.2
PRSQ	≤ 0.2
SRQT	≤ 0.2
ITNR	≤ 0.2
